# About 550 (1.1%) of roughly 48,000 compounds were called active. Roughly 4% stayed inconclusive and do not appear here. Rule as the data show it: active = potency below about 15 µM; inconclusive = mostly about 16 µM to 33 µM; inactive = weaker than that. Some of the results follow.
# Target: Lysosomal acid glucosylceramidase (Homo sapiens) (UniProt P04062)
# Experiment: Glucocerebrosidase;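 also: the screen sought inhibitors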
# Conditions: purified enzyme, resorufin glucoside fluorescence (screen aimed at inhibitors), 20 min
# Outline: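 Normal human glucocerebrosidase (0.2 nM final) was assayed with resorufin β-D-glucopyranoside (30 uM final) in 50mM citric acid/KH2PO4, 10mM sodium taurocholate, 0.01% tween-20, pH 5.9. Compounds were titrated; fluorescence (Ex 548, Em 600) read after 20 min at RT.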
# Potency is read from the fitted curve at half-maximal effect.
# Sequence of UniProt P04062 (P04062 whole entry, looked up): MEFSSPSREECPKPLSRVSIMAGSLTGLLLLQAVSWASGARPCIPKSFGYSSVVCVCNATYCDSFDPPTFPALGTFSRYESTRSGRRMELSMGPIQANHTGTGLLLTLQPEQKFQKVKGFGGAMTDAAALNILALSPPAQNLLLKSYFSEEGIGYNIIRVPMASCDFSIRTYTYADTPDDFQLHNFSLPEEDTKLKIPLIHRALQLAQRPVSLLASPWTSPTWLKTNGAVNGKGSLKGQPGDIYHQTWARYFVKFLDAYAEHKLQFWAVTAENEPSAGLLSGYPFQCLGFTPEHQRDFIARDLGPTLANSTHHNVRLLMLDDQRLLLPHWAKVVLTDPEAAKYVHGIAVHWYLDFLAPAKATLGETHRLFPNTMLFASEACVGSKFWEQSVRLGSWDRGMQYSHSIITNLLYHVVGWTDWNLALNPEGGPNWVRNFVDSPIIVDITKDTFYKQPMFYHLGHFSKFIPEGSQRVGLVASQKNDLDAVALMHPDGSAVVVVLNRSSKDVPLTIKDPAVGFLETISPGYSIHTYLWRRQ
row,SMILES,Potency
1,CCOC(=O)c1sc2nc(CSCC(=O)OCc3ccc(C(=O)OC)o3)[nH]c(=O)c2c1C,inactive: > 76.9 µM
2,COc1cccc(NC(=O)Cn2cnc3sc(C)c(S(=O)(=O)N4CCN(C)CC4)c3c2=O)c1,inactive: > 76.9 µM
3,CCCS(=O)(=O)N1CCC(C(=O)NCCN(C)Cc2ccccc2)CC1,inactive: > 76.9 µM
4,COc1cc(NC(=O)c2cccc(Cl)c2)c(OC)cc1NC(=O)CN1CCOCC1,inactive: > 76.9 µM
5,CCOc1ccccc1NC(=O)c1cc(CC(C)C)oc1C,inactive: > 76.9 µM
6,CCOC(=O)C(NC(=O)CC)(Nc1ccc(S(=O)(=O)Nc2cc(C)on2)cc1)C(F)(F)F (stereo not drawn),inactive: > 76.9 µM
7,CN1CCN(CC#CC(C)(O)C2CC3C=CC2C3)CC1 (stereo not drawn),inactive: > 76.9 µM
8,Cc1nn(-c2ccccc2)c2c1C(O)n1c(nc3ccccc31)S2 (stereo not drawn),inactive: > 76.9 µM
9,CCn1nc(C(=O)OCC(=O)N2CCc3ccccc32)c2ccccc2c1=O,inactive: > 76.9 µM
10,O=C1CN(C(=O)CSc2nnnn2-c2ccc(Cl)cc2)c2ccccc2N1,inactive: > 76.9 µM
11,CC(C(=O)Nc1cccnc1)N1C(=O)C2C3C=CC(C3)C2C1=O (stereo not drawn),inactive: > 76.9 µM
12,Cn1c(Cn2nnc3ccccc32)nnc1SCC(=O)c1ccc(F)cc1,inactive: > 76.9 µM
13,Cc1cccc(NC(=O)C2CCN(S(=O)(=O)c3cccc4nsnc34)CC2)n1,inactive: > 76.9 µM
14,O=C(CSc1ncn[nH]1)Nc1ccccc1C(=O)O,inactive: > 76.9 µM
15,COC(=O)/C=C1\NCCSC1=O,inactive: > 76.9 µM
16,O=C(NCC(c1cccnc1)N1CCOCC1)Nc1ccccc1 (stereo not drawn),inactive: > 76.9 µM
17,O=C1Nc2c(c(=O)[nH]c(=O)n2-c2ccccc2)C1(Nc1ncccn1)C(F)(F)F (stereo not drawn),inactive: > 76.9 µM
18,COc1cc(S(=O)(=O)N(Cc2cccnc2)Cc2ccco2)ccc1-n1cnnn1,inactive: > 76.9 µM
19,CCN(CC)S(=O)(=O)c1ccc(C(=O)C(C#N)c2ccccn2)cc1 (stereo not drawn),inactive: > 76.9 µM
20,Cn1c(=O)c2c(nc(CN3CCN(c4ccccc4)CC3)n2CCc2ccccc2)n(C)c1=O,inactive: > 76.9 µM

row,SMILES,Potency
1,Cc1cccn2cc(CNC(=O)C3CCCCC3)nc12,inactive: > 76.9 µM
2,O=C(c1cc(-c2ccc(Cl)cc2)on1)N1CCOCC1,inactive: > 76.9 µM
3,COC(=O)c1ccc(CSc2nnnn2-c2ccccc2)o1,inactive: > 76.9 µM
4,O=C(CN1C(=O)c2ccccc2C1=O)Nc1ccccc1C(=O)N1CCCC1,inactive: > 76.9 µM
5,Cc1nnc(N)nc1C,inactive: > 76.9 µM
6,Cc1ccc(OCc2nc(C#N)c(N3CCN(Cc4ccccc4)CC3)o2)cc1,inactive: > 76.9 µM
7,CCCCCC(=O)Nc1ccc2oc(-c3ccncc3)nc2c1,inactive: > 76.9 µM
8,O=C(CSc1nnc(-c2ccncc2)n1CC1CCCO1)NCc1ccccc1 (stereo not drawn),inactive: > 76.9 µM
9,COc1cc(NC(=O)C2CCN(S(=O)(=O)c3cccc4nonc34)CC2)cc(OC)c1,inactive: > 76.9 µM
10,COc1ccc(-c2ccc(CCC(=O)O)n2C(C)C)cc1,inactive: > 76.9 µM
11,CCSc1nnc(-c2ccc(S(=O)(=O)NCc3cccs3)cc2)o1,inactive: > 76.9 µM
12,CCCCn1c(NCCC)nc2c1c(=O)[nH]c(=O)n2C,inactive: > 76.9 µM
13,Cc1sc2ncnc(N3CCCCC3C)c2c1C (stereo not drawn),inactive: > 76.9 µM
14,CN1C(=O)N(C)C2C1N(CN1CCCCC1)C(=O)N2CN1CCCCC1 (stereo not drawn),inactive: > 76.9 µM
15,CCOC(=O)N1CCN(Cc2nc(-c3ccccc3)no2)CC1,inactive: > 76.9 µM
16,CCC(CC)C(=O)Nc1cc(NC(=O)C(CC)CC)cc(C(=O)O)c1,inactive: > 76.9 µM
17,CCOc1ccccc1CNc1ccc(N2CCOCC2)c(C(=O)O)c1,inactive: > 76.9 µM
18,CCOC(=O)CNC(=O)CSc1nc(N(C)C)nc(N2CCOCC2)n1,inactive: > 76.9 µM
19,CCC(C)NC(=O)CSc1nnc(-c2ccc(C(C)(C)C)cc2)n1C (stereo not drawn),inactive: > 76.9 µM
20,Cc1ncsc1C(=O)Nc1nc2c(s1)CC(C)CC2 (stereo not drawn),inactive: > 76.9 µM

row,SMILES,Potency
1,CCOc1ccccc1NC(=O)CN(c1nccs1)S(=O)(=O)c1ccc(N)cc1,inactive: > 76.9 µM
2,Cc1ccc(-n2cccc2C(=S)N=P(N(C)C)(N(C)C)N(C)C)cc1,inactive: > 76.9 µM
3,CN/S(=N/S(=O)(=O)c1ccccc1)c1ccc(C)cc1 (stereo not drawn),inactive: > 76.9 µM
4,CC(SC1CCCC1)C(=O)Nc1ccnn1C(C)C (stereo not drawn),inactive: > 76.9 µM
5,COc1ccccc1C(CCN(Cc1cccs1)C(C)=O)c1ccco1 (stereo not drawn),inactive: > 76.9 µM
6,COc1cc2c(=O)n(Cc3ccco3)c(=O)n(CC(=O)c3cccc(Br)c3)c2cc1OC,inactive: > 76.9 µM
7,O=c1[nH]c2cc3c(cc2cc1C(c1nnnn1C1CCCC1)N1CCSCC1)OCCO3 (stereo not drawn),inactive: > 76.9 µM
8,CCCCOc1ccc(-c2nnc(-c3ccncc3)o2)cc1,inactive: > 76.9 µM
9,O=C(Cn1cccc1C(=O)c1ccccc1)NCc1ccco1,inactive: > 76.9 µM
10,CC(=O)N(CN1C(=O)C2CC=CCC2C1=O)c1cccc(Cl)c1 (stereo not drawn),inactive: > 76.9 µM
11,Cc1ccc(S(=O)(=O)Nc2c(C)n(C)n(-c3ccccc3)c2=O)cc1C(=O)NCc1ccccn1,inactive: > 76.9 µM
12,FC(F)(F)c1nnc2sc(-c3ccccn3)nn12,inactive: > 76.9 µM
13,COc1ccccc1-c1nc2s/c(=C\c3cccs3)c(=O)n2n1,active: 5.81 µM
14,O=C1CCC(C(=O)Nc2ccc(OC(F)F)cc2)N1 (stereo not drawn),inactive
15,Cc1cc(=O)n2c(c1C#N)SC1CCCCC12O (stereo not drawn),inactive: > 76.9 µM
16,Cc1nc(SCC(=O)Nc2c(C)n(C)n(-c3ccccc3)c2=O)[nH]c(=O)c1Cc1ccccc1,inactive: > 76.9 µM
17,C=CCN(Cc1cc(OC)ccc1OC)S(=O)(=O)N(C)C,inactive: > 76.9 µM
18,CC(C)(C)NC(=O)CN(Cc1cccs1)C(=O)c1csnn1,inactive: > 76.9 µM

# — PubChem BioAssay AID360 (National Center for Advancing Translational Sciences (NCATS), 2006)
